Reference: the RNAGym collection of RNA variant scans (doi:10.1073/pnas.2313332121)
Variants at the floor of the assay are shown more often than the library holds them.

B1: TPR 5TU (parent)
chain: GGAUCUUCUCGAUCUAACAAAAAAGACAAAUCUGCCACAAAGCUUGAGAGCAUCUUCGGAUGCAGAGGCGGCAGCCUUCGGUGGCGCGAUAGCGCCAACGUUCUCAACUAUGACACGCAAAACGCGUGCUCCGUUGAAUGGAGUUUAUCAUG

Variants of: B1
Experiment: polymerase ribozyme fitness, log enrichment relative to wild type (log ratio); higher = more active; in vitro selection for triplet polymerase activity
How it was run: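 Each subunit of a heterodimeric triplet polymerase ribozyme was mutagenized into a library by PCR, transcribed, and subjected to one round of in vitro selection, run in triplicate. Libraries were annealed with a biotinylated primer, the partner subunit and triplets, incubated frozen at −7 °C, and extended constructs were gel-excised, captured on streptavidin beads and recovered by RT-PCR. Input and output libraries were sequenced on Illumina, keeping genotypes with ≥10 input reads and ≥1 read per output. Fitness is log base 2 of genotype enrichment divided by wild-type enrichment, from inverse-variance-weighted replicate averages.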

Row | Variant | polymerase ribozyme fitness (log ratio)
1 | A22C A41C G68U U144G | ≤ -4.2
2 | A23G C36U G50U G100A A107G C118G | ≤ -4.2
3 | A22G C27U U44A A52C A73G C95U | ≤ -4.2
4 | A21U G62A G67A G92U G152U | ≤ -4.2
5 | A23G U31G A47C A64C G65A U82G U102C A121G | ≤ -4.2
6 | A23G G58U C108G U135G | ≤ -4.2
7 | A21U C75A A98G U101A C103G | ≤ -4.2
8 | A22G C95U C132G G141C C149U | ≤ -4.2
9 | A21U C87A C96A C99G C125U G140C | ≤ -4.2
10 | A23C A26G C116G | ≤ -4.2
11 | A22G U44A G59A C69A C108G | ≤ -4.2
12 | A22U A66U G80C U82A C118U U139A C149A | ≤ -4.2
13 | A23G G48C C108G A110G A122C | ≤ -4.2
14 | A22G C27G A29G A49C U53A C54G C79U G83U C93G U127C | ≤ -4.2
15 | A23G A41U C76G G80A A89U G124U | ≤ -4.2
16 | A21U A29U C85U G141C | ≤ -4.2
17 | A21U C43A U53A A60C U61A C76A C87U C95G U146C U148G | ≤ -4.2
18 | A22U A23C C27G C63U C87U A89G C129A | ≤ -4.2
19 | A22C A66C C103G G126C | ≤ -4.2
20 | A22U C93G C96A A121C | ≤ -4.2
21 | A23G C76G A89U C108G U111G | ≤ -4.2

Row | Variant | polymerase ribozyme fitness (log ratio)
22 | A22G A91U A122C U144A | ≤ -4.2
23 | A22C A29C A39G C57A | ≤ -4.2
24 | A23G A52C U53A U56G C85U | ≤ -4.2
25 | A22G C63A C85G A110C | ≤ -4.2
26 | A23C A30C A47U A60C C85U C96U C99A A107C G126A | ≤ -4.2
27 | A21U A29U U33G C35U G81U G84A | -4.1
28 | A21U G25A A89C | -3.68
29 | A23G G50C C96G U104G | ≤ -4.2
30 | A21U G58A G124C G133A U148G C149U | ≤ -4.2
31 | A23G A37G A39G U44A A64U C75U C95U C108A A142U | ≤ -4.2
32 | A23G A30G C85G C131A G133A A138U | ≤ -4.2
33 | A23C C35G A47U G59U A66U U90G A122C | ≤ -4.2
34 | A22U G88C A89C C108U G141U | ≤ -4.2
35 | A21U C54A U55A G71A C75U G80A C87G A97U C132G G141U | ≤ -4.2
36 | A22G G88A A91U | ≤ -4.2
37 | A22C C85A A115U U127A C131G U146G | ≤ -4.2
38 | A22C U44A C85U C103G C125G G140A | ≤ -4.2
39 | A21U G25U A64C C85U U135G | ≤ -4.2
40 | A23C A41G C51A U56A U127C | ≤ -4.2
41 | A22U G59U G86A A121G A138U | ≤ -4.2
42 | A23G A29G C131A | ≤ -4.2

Row | Variant | polymerase ribozyme fitness (log ratio)
43 | A23G A49U C51U U53A A60G U61A G71U A73G C85A C87A C105G | ≤ -4.2
44 | A22G C36A G48A C95G G140C | ≤ -4.2
45 | A21U A40C | 1.56
46 | A22C A24U G25C G84U U101G U146G | ≤ -4.2
47 | A22U C54U G81A G83A U90A C95U G141C | ≤ -4.2
48 | A21U C27A U44G C87A A137U | ≤ -4.2
49 | A23C A29G A52C C54G U82C G136C | ≤ -4.2
50 | A22U A29G G68A G88U A91U G112C | ≤ -4.2
51 | A22G A52G G128C | -3.48
52 | A22C C36A G48U C75U C87G | ≤ -4.2
53 | A21U G68C C69G C116U | ≤ -4.2
54 | A22G A52U U56A A91U C93A A142U | ≤ -4.2
55 | A21U U33G G58U A66C G71A G80A C95A A150G | ≤ -4.2
56 | A22G G92U C103U C108G G133C | ≤ -4.2
57 | A21U G42C G83A U109G U151G | ≤ -4.2
58 | A22U G81A C93G | ≤ -4.2
59 | A23C G34C C72U | ≤ -4.2
60 | A22U U31G C87G A98G | ≤ -4.2
61 | A21U A47C A66G C76U C93U U101G U139A | ≤ -4.2
62 | A23G U55C G81U C87A A89G A91G A120U | ≤ -4.2
63 | A23C A24C C76A C87G A142G | ≤ -4.2

Row | Variant | polymerase ribozyme fitness (log ratio)
64 | A22C G42A C85U U127G U130C | ≤ -4.2
65 | A22U A73C A91G A138U | ≤ -4.2
66 | A22U A47U A49G G133C A142U | ≤ -4.2
67 | A22U A39U A49C C57A G62A A66C U82G U109A G141C | ≤ -4.2
68 | A21U A37C C54U C57U C95G C105U C114A | ≤ -4.2
69 | A21U G50C | -3.57
70 | A22G A26U C27U C57G C85A | ≤ -4.2
71 | A22U G133C | -1.46
72 | A22G C54U U56A C76U G94C U145A | -0.624
73 | A22U C57A C96G A97U C118G A119C | -2.85
74 | A23C G34U C95U A113G | ≤ -4.2
75 | A23G A28G A39U A40U U44A U61A U78G C85U U151G | ≤ -4.2
76 | A23C A26U U56A G83A C96G U101G G124U U134G | ≤ -4.2
77 | A22G A23C A28C A41C U44G U55A G68C A91G U146A | ≤ -4.2
78 | A22C U55A G58A G65A G83U C95U C108A C123U G128U | ≤ -4.2
79 | A23C A91G C108U | ≤ -4.2
80 | A22G A29U G46U G92U U135C | ≤ -4.2
81 | A22U U31C G81C A89C | 1.01
82 | A22U U55A G86U C93U U104G A142G | ≤ -4.2
83 | A23G G25C G50C C57A G58U C85U U144C | ≤ -4.2
84 | A22C C38A A39C G48U G83A | ≤ -4.2
